{
  "source": "PubChem BioAssay AID493208",
  "about": "(National Center for Advancing Translational Sciences (NCATS), 2011)",
  "note": "Out of some 44,000 compounds screened, about 340 (0.77%) were called active. The inconclusive results got no clear call from the source; some entries with a clear call stand among them for comparison. Calls follow the shape of the dose curve; as a rule, active = well fitted inhibition curve with a large enough effect; inconclusive = small, poorly fitted or top-dose-only effect; inactive = flat fitted curve, though single readings scatter. Potencies of inconclusive entries are left out as doubtful fits. Potency is read from the fitted curve at half-maximal effect; tags tell the direction and shape of the fitted curve.",
  "data": [
    {"assay": "Acumen qHTS Assay for Inhibitors of the mTORC1 Signaling Pathway in MEF (Tsc2-/-, p53-/-) Cells: Sytravon; also: nearly all actives have a fitted effect of over 50% in size;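 as to activity change, negative = inhibition: plate controls were DMSO for no effect and rapamycin for full effect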", "conditions": "phospho-rpS6 immunofluorescence/PI, 24 h; series mostly up to 38.3 µM; activity change, negative = inhibition: at the top concentration", "summary_of_the_method": "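Plate MEFs (Tsc2-/-, p53-/-, empty vector) in DMEM/10% FBS; after 24 h add compound, incubate 24 h at 37 degree Celsius; fix in PFA/TX-100, block, stain phospho-rpS6 and 10 uM PI; scan at 488 nm; report % positive cells.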", "values": [
      {"smiles": "Cc1ccc(-n2ncc(C(=O)NCCN3CCCC3)c2C2CCN(C(=O)OC(C)(C)C)CC2)cc1", "activity change, negative = inhibition": "inactive: 0.0752%"},
      {"smiles": "COc1ccc(CCNC(=O)CSc2cn(CCNC(=O)c3ccccc3F)c3ccccc23)cc1OC", "Potency": "inconclusive [falling, partial curve, poor fit]"},
      {"smiles": "CCOc1ccc(C2=C(C(=O)CC)Sc3nncn3N2C(=O)CC)cc1", "Potency": "inconclusive [falling, single point]"},
      {"smiles": "CCCC1=Nc2cc(C(=O)NCC(C)c3ccccc3)ccc2Sc2ccccc21", "note": "(centres undefined)", "activity change, negative = inhibition": "inactive: -26.7%"},
      {"smiles": "Cc1ccc(C2c3c(-c4ccccc4O)n[nH]c3C(=O)N2CCc2ccccc2)cc1", "note": "(centres undefined)", "Potency": "active: 16.5 µM"},
      {"smiles": "CC(=O)N1c2c(cc(Br)cc2S(=O)(=O)Nc2ccc(OC(F)(F)F)cc2)CC1C", "note": "(centres undefined)", "Potency": "inconclusive [falling, full curve, poor fit]"},
      {"smiles": "O=C(Nc1ccc(Cl)cc1)c1cc(S(=O)(=O)N2CCCc3ccccc32)ccc1F", "Potency": "inconclusive [falling, partial curve, poor fit]"},
      {"smiles": "Cc1c(C(=O)OC2CCC(C)CC2)[nH]c2c1C(=O)CC(c1ccccc1Cl)C2", "note": "(centres undefined)", "Potency": "inconclusive [falling, partial curve, poor fit]"},
      {"smiles": "CCN(CC)CCOC(=O)c1ccc(NC(=O)c2cc3cccc(OC)c3oc2=O)cc1", "Potency": "inconclusive [falling, partial curve]"},
      {"smiles": "CC(C)c1ccc(NC(=O)c2ccc(F)c(S(=O)(=O)N3CCN(c4ccccc4F)CC3)c2)cc1", "Potency": "inconclusive [falling, single point]"},
      {"smiles": "Cc1ccc(C(=O)/C=C/c2cn(CC(O)CN3CCCCCC3)c3ccccc23)cc1", "note": "(centres undefined)", "Potency": "inconclusive [falling, single point]"},
      {"smiles": "COc1ccccc1N1CCN(S(=O)(=O)c2ccc(-n3cnnn3)cc2)CC1", "Potency": "inconclusive [falling, single point]"},
      {"smiles": "Cc1ccc(S(=O)(=O)c2nnn3c2nc(N2CCCCC2)c2sccc23)cc1", "activity change, negative = inhibition": "inactive: 0.786%"},
      {"smiles": "CCN(CC)S(=O)(=O)c1ccc(NC(=O)[C@H](CCSC)N2Cc3ccccc3C2=O)cc1", "activity change, negative = inhibition": "inactive: -4.22%"},
      {"smiles": "Cc1ccc(C(=O)Nc2cc3cc(Cl)ccc3oc2=O)cc1", "activity change, negative = inhibition": "inactive: 5.35%"},
      {"smiles": "CCOc1ccc(S(=O)(=O)N(C(C)=O)c2ccc3oc(C)c(C(=O)OC)c3c2)cc1", "Potency": "active: 6.56 µM"},
      {"smiles": "Cc1cccc(NC(=O)c2ccc(F)c(S(=O)(=O)NCc3ccc4c(c3)OCO4)c2)c1", "Potency": "inconclusive [falling, single point]"},
      {"smiles": "CCSc1ncc(Cl)c(C(=O)Nc2ccc(S(=O)(=O)N3CCCCC3CC)cc2)n1", "note": "(centres undefined)", "Potency": "inconclusive [falling, single point]"},
      {"smiles": "COc1cc(O)ccc1-c1nc2ccc(Br)cn2c1Nc1ccccc1C", "activity change, negative = inhibition": "inactive: -11.3%"},
      {"smiles": "Cc1ccc(OCC(=O)Nc2nnc(SCc3cc(=O)n4cc(C)ccc4n3)s2)cc1", "Potency": "inconclusive [falling, partial curve, poor fit]"},
      {"smiles": "COc1cccc(-n2ccnc2SCC(=O)Nc2nc3ccc(C)cc3s2)c1", "Potency": "inconclusive [falling, single point]"},
      {"smiles": "CCc1ccc(NS(=O)(=O)c2cc(Br)cc3c2N(C(C)=O)CC3)cc1", "Potency": "inconclusive [falling, partial curve, poor fit]"},
      {"smiles": "CN(C)c1ccc(C(CNC(=O)c2ccccc2Cl)N2CCc3ccccc32)cc1", "note": "(centres undefined)", "activity change, negative = inhibition": "inactive: 0%"},
      {"smiles": "CCN(CC)S(=O)(=O)c1ccc2nc(NC(=O)c3ccccc3OC)sc2c1", "Potency": "inconclusive [falling, single point]"},
      {"smiles": "COc1ccccc1CNC(=O)CCCn1c(=O)c2cccn2c2ccccc21", "Potency": "active: 18.5 µM"},
      {"smiles": "N#Cc1ccccc1S(=O)(=O)N1CCC(Oc2ccc(-n3cnnn3)cc2)CC1", "Potency": "inconclusive [falling, single point]"},
      {"smiles": "Cc1ccc(C)c(NC(=O)Cn2nnc(C(=O)NCc3ccco3)c2N)c1", "activity change, negative = inhibition": "inactive: -20.4%"},
      {"smiles": "COc1ccc(NC(=O)C2CCN(c3nc(-c4ccc(OC)c(OC)c4)no3)CC2)cc1Cl", "Potency": "inconclusive [falling, partial curve, poor fit]"},
      {"smiles": "CCOC(=O)c1c(C)oc2ncnc(N3CCN(c4cccc(Cl)c4)CC3)c12", "Potency": "inconclusive [falling, full curve]"},
      {"smiles": "COc1ccc(Cl)cc1NC(=O)CSc1nc2ccccc2nc1N1CCCCC1", "activity change, negative = inhibition": "inactive: -1.46%"},
      {"smiles": "Cc1ccc(-n2ncc3c(N(CCO)Cc4ccccc4)ncnc32)cc1", "activity change, negative = inhibition": "inactive: -15.7%"},
      {"smiles": "Cc1ccc(NC(=O)Cn2c(=O)n(CCc3ccccc3)c(=O)c3c4c(sc32)CCCC4)cc1C", "Potency": "inconclusive [activator, partial curve, poor fit]"},
      {"smiles": "Cc1c(Cl)cccc1NC(=O)CSc1cc(-c2ccccc2)ncn1", "activity change, negative = inhibition": "inactive: 1.53%"},
      {"smiles": "CN(C)c1cccc(C(=O)Nc2ccc(-c3nc4ccccc4s3)cc2)c1", "activity change, negative = inhibition": "inactive: -7.53%"},
      {"smiles": "Cc1cccc(-n2ncc3c(Nc4c(C)cc(C)cc4C)ncnc32)c1", "Potency": "inconclusive [falling, single point]"},
      {"smiles": "Oc1ccc(Nc2nc(-c3ccc(Cl)cc3)nc3ccccc23)cc1", "Potency": "inconclusive [falling, single point]"},
      {"smiles": "Cc1ccc(S(=O)(=O)Nc2ccc3c(c2)c(C(=O)OC(C)C)c(C)n3S(=O)(=O)c2ccc(C)cc2)cc1", "Potency": "inconclusive [falling, partial curve, poor fit]"},
      {"smiles": "O=S(=O)(Nc1ccc(Br)cc1)c1ccc2nc(-c3ccccc3)[nH]c2c1", "activity change, negative = inhibition": "inactive: 11.7%"},
      {"smiles": "CCN(CC)CCNC(=O)Cn1ncc2c3ccccc3n(Cc3ccccc3C)c2c1=O", "Potency": "inconclusive [falling, single point]"},
      {"smiles": "CC(=O)C1=C(c2ccc(Cl)c(Cl)c2)N(C(C)=O)n2c(C)nnc2S1", "Potency": "inconclusive [falling, single point]"},
      {"smiles": "Cc1ccc(-n2nc3c(N4CCCC(C(=O)NCCc5ccccc5)C4)nnc(C)c3c2C)cc1", "note": "(centres undefined)", "activity change, negative = inhibition": "inactive: -5.98%"},
      {"smiles": "Cc1cccc(N2CCN(C(=O)C3CCN(S(=O)(=O)c4cccs4)CC3)CC2)c1C", "Potency": "inconclusive [falling, full curve, poor fit]"},
      {"smiles": "COc1ccc(-c2ccc(NS(=O)(=O)c3cccc(Cl)c3)cc2)nn1", "Potency": "inconclusive [falling, partial curve, poor fit]"},
      {"smiles": "Cc1ccc(N(CC(C)C)S(=O)(=O)c2nnc(NC(=O)c3ccco3)s2)cc1", "activity change, negative = inhibition": "inactive: 5.94%"},
      {"smiles": "CCC(C)Sc1c(C(C)C)cnc2c1c(=O)n(C)c(=O)n2C", "note": "(centres undefined)", "Potency": "inconclusive [falling, partial curve, poor fit]"},
      {"smiles": "Cc1nn(-c2ccc(N3CCOCC3)nn2)c(C)c1CCC(=O)NCc1ccccc1F", "Potency": "inconclusive [falling, single point]"},
      {"smiles": "COc1cc(C(=O)N2CC(=O)Nc3ccc(C)cc3C2c2ccc(F)cc2)cc(OC)c1OC", "note": "(centres undefined)", "Potency": "inconclusive [falling, single point]"},
      {"smiles": "CCN1CCC(N(Cc2ccc(F)cc2)C(=O)Nc2cc(Cl)ccc2C(=O)OC)CC1", "Potency": "inconclusive [falling, single point]"},
      {"smiles": "Cc1ccc(Nc2nc(Nc3ccc(C)c(C)c3)nc(N3CCOCC3)n2)cc1C", "Potency": "active: 1.04 µM"},
      {"smiles": "COc1ccc(N2CCN(CCCNC(=O)c3cc(Nc4ccccc4OC)nc4ccccc34)CC2)cc1", "Potency": "inconclusive [falling, single point]"},
      {"smiles": "CCOC(=O)C1CCN(c2c(C(=O)c3ccc(C)cc3)cnc3ccc(F)cc23)CC1", "Potency": "inconclusive [falling, partial curve, poor fit]"},
      {"smiles": "CCOC(=O)c1cccc(NS(=O)(=O)c2cc3[nH]c(=O)c(=O)[nH]c3cc2C)c1", "Potency": "inconclusive [falling, partial curve, poor fit]"},
      {"smiles": "Cc1cccc(-n2c(C)nc3cc(C(=O)NC4CCCCCC4)ccc32)c1", "Potency": "inconclusive [falling, single point]"},
      {"smiles": "Cc1nc2c(C(=O)NCCc3ccc(Cl)cc3)c[nH]n2c(=O)c1Cc1ccccc1F", "activity change, negative = inhibition": "inactive: -6.54%"},
      {"smiles": "CCCCOC(=O)c1ccc(Nc2nc3ccccc3c3nnc(C)n23)cc1", "activity change, negative = inhibition": "inactive: -4.01%"},
      {"smiles": "CCc1ccccc1NC(=O)Cn1nnc(C(=O)NCc2cccs2)c1N", "activity change, negative = inhibition": "inactive: -3.48%"},
      {"smiles": "Cc1ccc(C(CC(=O)NCC2(c3ccccc3)CCCC2)c2ccccc2)c(O)c1", "note": "(centres undefined)", "Potency": "inconclusive [falling, single point]"},
      {"smiles": "COc1ccc(C2C(=O)N(C3CCCCCC3)CC(=O)N2CCc2ccccc2)cc1", "note": "(centres undefined)", "Potency": "inconclusive [falling, partial curve, poor fit]"},
      {"smiles": "COc1ccc(OC)c(NCc2cccn2-c2nnc(N3CCC(C)CC3)s2)c1", "Potency": "inconclusive [falling, partial curve, poor fit]"},
      {"smiles": "Cc1ccc(S(=O)(=O)c2nc(-c3ccco3)oc2SC(C)C)cc1", "Potency": "inconclusive [falling, partial curve, poor fit]"},
      {"smiles": "COc1ccc(/C=C/C(=O)Nc2ccc3nc(N4CCC(C)CC4)cc(C)c3c2)cc1OC", "Potency": "inconclusive [falling, partial curve, poor fit]"},
      {"smiles": "CCCOCc1cc(CN2CCN(c3cccc(Cl)c3)CC2)c(O)c2ncccc12", "Potency": "inconclusive [falling, full curve]"},
      {"smiles": "COc1ccccc1N1CCN(C(=O)c2nc(-c3ccc(C)cc3)n3c2CCCCC3)CC1", "Potency": "inconclusive [falling, single point]"},
      {"smiles": "Cc1ccc(NC(=O)c2c(C)oc3ccc(O)c(CN4CCCCC4)c23)cc1", "Potency": "inconclusive [falling, single point]"}
    ]}
  ]
}
